We go through 29 compounds from PubChem BioAssay AID1645882 (National Center for Advancing Translational Sciences (NCATS), 2021).

In all, about 16,000 compounds went through this assay and about 120 (0.75%) were called active. Not shown: some 4% with an inconclusive outcome. Calls come from the whole dose curve; as a rule, active = well fitted inhibition curve with a large enough effect; inconclusive = small, poorly fitted or top-dose-only effect; inactive = no such curve, though single readings can be large or run the other way. The list shows a part of the results.

The assay addresses Rap guanine nucleotide exchange factor 3 (Homo sapiens) (UniProt O95398). The experiment in a line: Validation qHTS for antagonist of cAMP-regulated guanine nucleotide exchange factor 3 (EPAC1).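 Note: plate controls were DMSO for no effect and ATA control for full effect; nearly all actives have a fitted effect of over 75% in size.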 The following applies: EPAC1 Rap1B-BODIPY-GDP exchange, fluorescence; series mostly up to 150 µM; activity change, negative = inhibition: at the top concentration. A digest of the protocol: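 Nucleotide exchange followed as fluorescence loss when BODIPY-GDP leaves Rap1B (480 nm excitation, 540 nm emission), read at 5 min intervals over 30 min. Reaction: 100 nM EPAC1, 250 nM RAP1B-BODIPY-GDP, 50 uM GDP; ATA and DMSO define normalization.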
Chain of UniProt O95398 (O95398 whole entry, looked up): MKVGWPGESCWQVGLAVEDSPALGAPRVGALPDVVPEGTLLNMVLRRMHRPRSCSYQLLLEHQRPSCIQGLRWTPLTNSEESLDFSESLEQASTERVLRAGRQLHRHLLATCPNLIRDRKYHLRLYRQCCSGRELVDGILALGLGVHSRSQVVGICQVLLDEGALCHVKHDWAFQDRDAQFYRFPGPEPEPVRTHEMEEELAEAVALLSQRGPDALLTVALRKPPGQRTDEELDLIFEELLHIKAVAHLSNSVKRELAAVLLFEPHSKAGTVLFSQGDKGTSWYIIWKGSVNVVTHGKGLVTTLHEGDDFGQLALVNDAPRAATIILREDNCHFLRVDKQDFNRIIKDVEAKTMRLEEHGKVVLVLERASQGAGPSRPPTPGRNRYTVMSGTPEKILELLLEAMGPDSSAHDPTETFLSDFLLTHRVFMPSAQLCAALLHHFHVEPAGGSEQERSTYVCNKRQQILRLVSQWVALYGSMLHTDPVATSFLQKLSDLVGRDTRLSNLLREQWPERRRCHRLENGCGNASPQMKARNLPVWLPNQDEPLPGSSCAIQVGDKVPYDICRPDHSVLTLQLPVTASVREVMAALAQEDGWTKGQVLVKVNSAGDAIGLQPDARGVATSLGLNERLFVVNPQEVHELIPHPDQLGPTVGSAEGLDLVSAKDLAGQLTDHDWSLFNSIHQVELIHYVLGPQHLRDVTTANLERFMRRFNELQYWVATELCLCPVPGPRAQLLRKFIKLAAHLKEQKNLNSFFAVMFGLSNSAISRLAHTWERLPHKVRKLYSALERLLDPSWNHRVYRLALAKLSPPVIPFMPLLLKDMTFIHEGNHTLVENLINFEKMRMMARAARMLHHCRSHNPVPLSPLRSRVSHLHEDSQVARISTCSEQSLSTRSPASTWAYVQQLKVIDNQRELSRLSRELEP
A general note: qHTS replaces the single test concentration by a dilution series.
For `N=C(N)SCCc1ccc(OCc2ccc([N+](=O)[O-])cc2)cc1`, the “activity change, negative = inhibition” value was inactive: -9.83%. As to `Cc1noc(C)c1-c1nccc(NC2CC2)n1`, the “activity change, negative = inhibition” value was inactive: 15.4%. As to `c1ccc2sc(SSc3nc4ccccc4s3)nc2c1`, the “activity change, negative = inhibition” value was inactive: 13.2%. `COCC(=O)Nc1cc(C(=O)N2CC3CCCC2C3)c2c(c1)nc(-c1ccncc1)n2C` (centres undefined): the “activity change, negative = inhibition” value is inactive: -9%. As for `Cc1cccc2c(N3CCCC3)nc(CNS(=O)(=O)c3ccccc3F)nc12`, the figure is inactive: -0.903%. With `O=C(Nc1cccc(F)c1)N1CCCC2(CCN(C(=O)c3ccncc3)CC2)C1`, the “activity change, negative = inhibition” value is inactive: -19.4%. As for `CC(=O)OCC(=O)C1CCC2C3CC=C4CC(O)CC[C@@]4(C)C3CC[C@]12C` (some centres undefined), the “activity change, negative = inhibition” value is inactive: 7.91%. As to `Cc1ccc(Nc2c(F)cccc2Cl)c(CC(=O)O)c1`, the “activity change, negative = inhibition” value was inactive: 13.6%.

Turning to `CCCCN1CC[C@H]2C=CC[C@@H](C(=O)Nc3ccccc3)[C@H]2C1=O`, the “activity change, negative = inhibition” value is inactive: 9.14%. On to `COc1ccccc1C(=O)Nc1cccc(N2CCC(NCc3cnn(-c4ccccc4)n3)CC2)c1`, for which the “activity change, negative = inhibition” value is inactive: 2.9%. Take `CN1CC[C@@]2(CCCN(S(=O)(=O)c3ccccc3)C2)C1`: the “activity change, negative = inhibition” value is inactive: -9.91%. Regarding `CC(NC(=O)C1CCOCC1)c1nnc2n1CCN(Cc1ccc3cccnc3c1)CC2` (centres undefined), the “activity change, negative = inhibition” value was inactive: 9.89%.

`CC(=O)c1ccc[n+](CC(=O)c2ccc(F)cc2)c1`: the “activity change, negative = inhibition” value was inactive: 10.5%. `O=C(c1cnccn1)N1CCC2(CC1)CCN(c1ncccn1)CC2`: the “activity change, negative = inhibition” value is inactive: 8.65%. For `CCCCNC(=O)O[C@@H]1C[C@H]2CCCC(=O)N3CC[C@@H](C1)[C@@H]23`, the “activity change, negative = inhibition” value was inactive: 9.76%. On to `CC(C)(CO)[C@@H](O)C(=O)NCCCC(=O)O`, for which the “activity change, negative = inhibition” value was inactive: -6.28%. On to `NC(=NCc1ccccc1)NC(=O)c1nc(Cl)c(N)nc1N`, for which the activity change, negative = inhibition result was “inactive”. As to `C1=Cc2ccccc2/C1=C\c1ccc2c(c1)OCO2`, the “activity change, negative = inhibition” value was inactive: -20.1%. Consider `O=C1[C@H](Cc2ccccc2)NC/C=C\C[C@@H](c2ccco2)N1Cc1ccccc1`, for which the “activity change, negative = inhibition” value was inactive: 9.88%. For the compound `COc1cc(CN2CCOc3ccc(CN4CCC(Oc5cccnc5)CC4)cc3C2)ccc1F`, the “activity change, negative = inhibition” value was inactive: 5.21%. As for `Nc1nc(N)c2nc(CNc3ccc(C(=O)NC(CCC(=O)O)C(=O)O)cc3)cnc2n1` (centres undefined), the figure is inactive: 1.43% [at 75.8 µM].

In the case of `COc1ccc(-n2c(=O)c(-c3cccs3)nc3cncnc32)cc1`, the “activity change, negative = inhibition” value was inactive: 21.2%. As to `CCn1nc(C)cc1C(=O)NCCN1Cc2ccccc2OC(c2ccccc2F)C1` (centres undefined), the “activity change, negative = inhibition” value was inactive: -9.65%. As to `Fc1ccc(C(c2ccc(F)cc2)N2CCN(C/C=C/c3ccccc3)CC2)cc1`, the activity change, negative = inhibition result is “inactive”. As for `COC(=O)C1=C(C)NC(C)=C(C(=O)OCC(C)=O)C1c1ccccc1[N+](=O)[O-]` (centres undefined), the figure is inactive: 17.7%; as for `c1ccc2c(NCCN3CCOCC3)nc(-c3ccoc3)nc2c1`, inactive: 4.42%; as for `CN1CCc2c(c3ccccc3n2Cc2ccccc2)C1`, “inactive”. For `COc1cc(-c2noc(C)c2C#CC2(O)CCCCC2)cc(OC)c1OC`, the “activity change, negative = inhibition” value was inactive: -29%. As for `COc1ccc(NC2=Nc3ccccc3N[C@@]23C[C@H]2CCCC(=O)N4CC[C@@H](C3)[C@@H]24)cc1`, the “activity change, negative = inhibition” value was inactive: 6.11%.
